Experimental data from PMC13083723 (Patterns, 2026).
The whole screen tested about 5,400 compounds, of which about 190 (3.5%) showed an effect of 50% or more. The list shows a part of the results.

System: Vero-E6
Assay: primary screen, phospholipidosis by LipidTOX staining; higher = more effect of the substance
Details: 10 µM
Outline: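 Single-concentration screen at 10 μM, with DMSO 0.1 v/v % and amiodarone 10 μM as controls. Read-out is LipidTOX Red phospholipid staining, which tolerates aldehyde fixation, in Vero-E6 cells.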

| SMILES | result_ITMP |
| --- | --- |
| CN1CCC(COc2cnc(-c3cccc(Cn4nc(-c5cccc(C#N)c5)ccc4=O)c3)nc2)CC1 | 2.15% |
| COC[C@@H](NC(C)=O)C(=O)NCc1ccccc1 | -4.4% |
| O=C(O)CCn1c2c(c3ccccc31)C[C@H](NS(=O)(=O)c1ccc(F)cc1)CC2 | -1.07% |
| COc1cnc(NS(=O)(=O)c2ccc(N)cc2)nc1 | -2.47% |
| O=C(O)CCC(=O)Nc1ccc(S(=O)(=O)Nc2nccs2)cc1 | -3.42% |
| O=C1N=C(NCc2cccs2)S/C1=C\c1ccc2ncccc2c1 | -2.36% |
| Cc1cccc(CN2CCN(C(c3ccccc3)c3ccc(Cl)cc3)CC2)c1 (stereo not shown) | 8.69% |
| Cn1cnnc1Sc1c([N+](=O)[O-])ncn1C | -0.51% |
| CNCCC(Oc1ccccc1OC)c1ccccc1 (stereo not shown) | 13% |
| O=NN(CCCl)C(=O)NC1CCCCC1 | -5.33% |
| CCCCCCCCc1ccc(CCC(N)(CO)CO)cc1 | 46.4% |
| CNc1nc(NCc2ccc(NS(C)(=O)=O)cc2Cl)cc(-c2ccccn2)n1 | 4.77% |
| O=C1C(c2ccccn2)=[N+]([O-])c2ccccc21 | 1.02% |
| C[C@@H](O)[C@H]1C(=O)N2C(C(=O)[O-])=C(S[C@@H]3CN[C@H](C(=O)Nc4cccc(C(=O)O)c4)C3)[C@H](C)[C@H]12 | -0.24% |
| CCCCCCCC/C=C\CCCCCCCC(=O)NCCc1ccc(O)c(O)c1 | 0.61% |
| O=S(=O)(/N=C/c1c(O)ccc2ccccc12)c1cccs1 | -1.79% |
| O=C1OC2(c3ccc(O)cc3Oc3cc(O)ccc32)c2ccccc21 | 2.64% |
| CC(=O)N(CC(C)C(=O)O)c1c(I)cc(I)c(N)c1I (stereo not shown) | -10.2% |
| COc1ccc(OCC2c3cc(OC)c(OC)cc3CCN2C(=O)c2cccc(Cl)c2)cc1 (stereo not shown) | -4.92% |
| COc1cc(C(=O)NC2CCCNC2)cc(OC)c1OC (stereo not shown) | -4.69% |
| CC(C)(S)C(N)C(=O)O (stereo not shown) | -0.26% |
| C[C@@H]1NC(C)(C)CO[C@@]1(O)c1cccc(Cl)c1 | -1.66% |
| c1ccc(N2CCN(Cc3nc4ccccc4[nH]3)CC2)nc1 | -2.24% |
| COC(=O)c1c(-c2cc(OC)c(OC)c(OC)c2)c2ccnc(OCc3ncccn3)c2c(=O)n1Cc1ccnc(C)c1 | -1.68% |
| CCn1c(=O)/c(=C2\Sc3ccccc3N2C)s/c1=C/c1cccc[n+]1CC | -7.97% |
| c1cnc2c([O][Ga]([O]c3cccc4cccnc34)[O]c3cccc4cccnc34)cccc2c1 | 5.3% |
| CN[C@@H]1[C@H](OC2[C@H](O[C@H]3[C@H](O)[C@@H](O)[C@H](NC(=N)N)[C@@H](O)[C@@H]3NC(=N)N)O[C@@H](C)[C@]2(O)C=O)O[C@@H](CO)[C@H](O)[C@H]1O (stereo partly shown) | -1.71% |
| COC(=O)c1cc(OC)c2c(c1-c1c(CO)cc(OC)c3c1OCO3)OCO2 | -7.12% |

| SMILES | result_ITMP |
| --- | --- |
| N#Cc1cc2[nH]c(=O)c(=O)[nH]c2cc1[N+](=O)[O-] | -1.93% |
| CNC(=O)Nc1ccc(-c2nc(N3CC4CCC(C3)O4)c3cnn(C4CCC5(CC4)OCCO5)c3n2)cc1 | 2.27% |
| CCOC(=O)c1ncc2[nH]c3cccc(OC(C)C)c3c2c1C | -2.37% |
| CCCCC/N=c1/ccn(Cc2ccccc2)c2ccccc12 | -2.27% |
| COC1=C2C[C@@H](C)C[C@H](OC)[C@H](O)[C@@H](C)/C=C(\C)[C@H](OC(N)=O)[C@@H](OC)/C=C\C=C(/C)C(=O)NC(=CC1=O)C2=O | -2.67% |
| COc1ccc(C(=O)c2ccc(C)cc2)c(O)c1 | -5.75% |
| CCCCCCCCCCCCCCCCCCCCCCCCCCCCO | 5.71% |
| CCCCNc1ncc2c(-c3ccc(CN4CCN(C)CC4)cc3)cn([C@H]3CC[C@H](O)CC3)c2n1 | 38.5% |
| O=C([O-])C[C@H](O)C[C@H](O)CCc1c(C2CC2)nc2ccccc2c1-c1ccc(F)cc1 | -2.97% |
| NC(=O)NC(=O)Cc1ccccc1 | -2.14% |
| O=C(O)CN1CCN(CC(=O)O)CCN(CC(=O)O)CCN(CC(=O)O)CC1 | 1.35% |
| c1ccc2[nH]c(-c3cscn3)nc2c1 | -2.69% |
| Cn1cc(-c2ccc3nnc(C(F)(F)c4ccc5ncccc5c4)n3n2)cn1 | -3.45% |
| CNC(=O)O[C@H]1COc2ccc(N3CCN(C4COC4)CC3)cc2[C@@H]1NC(=O)c1ccc(F)cc1 | -1.74% |
| CCC(CC)CC1(C(=O)Nc2ccccc2SC(=O)C(C)C)CCCCC1 | 2.05% |
| CC(C)(C)NC(=O)N[C@H](C(=O)N1C[C@H]2[C@@H]([C@H]1C(=O)NC(CC1CCC1)C(=O)C(N)=O)C2(C)C)C(C)(C)C (stereo partly shown) | -2.27% |
| COc1ccc(CNC(=O)c2cc(-c3cncc(C)c3)ncc2-c2nccs2)nc1OC | -4.6% |
| Cn1c(=O)cc(N2CCC[C@@H](N)C2)n(Cc2ccccc2C#N)c1=O | -11.2% |
| CCOc1ccc(-c2nc(-c3cccc4c3CCC4NCCO)no2)cc1OCC (stereo not shown) | 108% |
| CCCCCCCN(CC)CCCC(O)c1ccc(NS(C)(=O)=O)cc1 (stereo not shown) | -0.39% |
| C=C1C[C@]23C[C@@]1(O)CC[C@H]2[C@@]12C=C[C@H](O)[C@@](C)(C(=O)O1)[C@H]2[C@@H]3C(=O)O | -2.41% |
| NC[C@H]1O[C@H](O[C@H]2[C@H](O)[C@@H](O[C@H]3O[C@H](CO)[C@@H](O)[C@H](N)[C@H]3O)[C@H](N)C[C@@H]2N)[C@H](N)C[C@@H]1O | -2.69% |
| COC(=O)NC(=S)Nc1ccccc1NC(=S)NC(=O)OC | 1.29% |
| COc1ccc(-c2cc(=O)c3c(O)cc(O[C@@H]4O[C@H](CO[C@@H]5O[C@@H](C)[C@H](O)[C@@H](O)[C@H]5O)[C@@H](O)[C@H](O)[C@H]4O)cc3o2)cc1O | -0.7% |
| C[N+](C)(C)NCCC(=O)[O-] | -4.85% |
| CCC1(CC)C(=O)NC(=O)N(C)C1=O | -0.15% |
| CS(=O)(=O)CCNCc1nc(-c2ccc3ncnc(Nc4ccc(OCc5cccc(F)c5)c(Cl)c4)c3c2)cs1 | 2.46% |
